Whole data set: some 33,000 sequences, median “E-score (-0.5 to 0.5)” near -0.036, cut for the highest 2% near 0.37. Some of the results follow.
target: T1, Yer064c (UniProt P40041); test: PBM E-score (8-mer binding enrichment) (E-score (-0.5 to 0.5)); higher = stronger / more preferred TF binding; most listed sequences are background and not binding sites; settings: protein concentration: 200 nM; construct: GST-full length
T1 sequence: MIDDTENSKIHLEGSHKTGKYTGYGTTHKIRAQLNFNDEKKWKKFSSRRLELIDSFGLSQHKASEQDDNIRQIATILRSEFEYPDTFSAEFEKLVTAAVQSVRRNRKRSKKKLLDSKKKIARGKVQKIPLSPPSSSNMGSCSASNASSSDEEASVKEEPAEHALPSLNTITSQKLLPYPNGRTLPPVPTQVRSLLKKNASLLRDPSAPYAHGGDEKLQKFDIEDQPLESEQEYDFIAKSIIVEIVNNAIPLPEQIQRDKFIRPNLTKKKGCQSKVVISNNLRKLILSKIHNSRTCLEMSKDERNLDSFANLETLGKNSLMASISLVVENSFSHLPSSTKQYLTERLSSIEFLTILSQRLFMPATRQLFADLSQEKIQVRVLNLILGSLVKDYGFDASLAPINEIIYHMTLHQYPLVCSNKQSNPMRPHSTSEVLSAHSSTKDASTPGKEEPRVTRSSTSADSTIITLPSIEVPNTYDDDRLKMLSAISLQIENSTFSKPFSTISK
Procedure, shortened: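 Detection of bound protein used fluorescent anti-GST, with scans normalised by masliner. The proteins were GST-tagged yeast transcription factors applied at about 100-200 nM to universal all-10-mer Agilent arrays made double-stranded by primer extension. Each ungapped eight-base word, pooled with its reverse complement, was scored with an E-score from the Universal PBM Analysis Suite.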

Sequence | PBM E-score
CCACACCA | -0.0216
AGGCACCG | -0.281
GAGAGGCA | -0.22
GTACCGAC | -0.057
AGAACTCT | 0.0393
CGATAGTC | 0.422
CGTGGCAA | -0.305
TCATTTAA | 0.226
ACGAGTGC | -0.227
ACTAAACC | 0.197
TATAACGA | 0.133
ATCGGCTA | -0.049
CCCACCTA | 0.0214
CCGTTGAA | -0.00435
CAGAATCC | -0.0882
CATATAGC | -0.00988
ATGGTTAC | 0.264
CGCCACCA | -0.222
GCGTAACC | -0.127
ACAGTAAA | 0.114
AAGGGCAG | -0.169
CGACTTAC | 0.256
GGATTGGA | -0.195
GGCAATTA | -0.0137
GAGTGACC | 0.0962

Sequence | PBM E-score
CTGCAGGA | 0.121
CATACACG | 0.0241
GTAAGCGA | 0.0159
CCATAAAC | -0.00848
AGGCGGTA | -0.162
CGAGCTCA | -0.0703
CAGGTAAG | -0.0153
AATAGCGT | -0.137
TCCGAGAA | -0.0812
GAATGACA | -0.232
GGTCCCAC | -0.179
GGGTGGCA | -0.154
CCAGGCGG | -0.0976
CGACCCGA | -0.243
AAGAATGT | -0.0525
AGACGCGC | -0.149
AGGTCGAA | -0.0147
CAGCGAAA | -0.0475
CTAATCAA | 0.264
CGTCTAAC | 0.00543
AGGACGCC | -0.233
ATTAAGGC | 0.083
CACTTTAC | 0.0259
ATGGGGTG | 0.107
GGTTACGA | -0.0968

Sequence | PBM E-score
GTGGCCTA | -0.27
CCCTTTCA | -0.163
CTCTTCCA | 0.104
ACATTATA | 0.0259
GCTAATAC | -0.15
CACGGGGA | -0.13
ATTACAAG | 0.116
GACAAGTC | 0.0909
ATGAATCA | 0.48
TTGATAAA | 0.159
ATAACGGG | 0.0331
CCGTATCA | -0.154
ACGTACCT | 0.0817
CCTCACGC | -0.0626
CAATTCAC | 0.00416
TGAGCACA | 0.0308
CCCCGACA | -0.259
AATTCCGT | -0.0163
ACGCATGA | 0.146
CGGTGCAA | -0.205
ACCAAGTC | 0.185
CTCACCAG | 0.108
TGCCGCAA | -0.0744
TATGAGAA | 0.0045
AGGAACAT | -0.094

Sequence | PBM E-score
AGAAACTA | 0.00317
CTCAGCTA | 0.0318
GATCAATA | 0.0196
ATAATTCG | -0.0723
CAAGTAGC | -0.102
CGTCCACG | -0.0549
AGCTTTTA | -0.0383
CGGGCTAC | -0.0732
CTAACTGA | 0.194
TGTACTAA | 0.149
GCGACGCA | -0.266
CGTGTCTA | 0.0936
GCGTGGAC | -0.241
ACCATGGA | -0.13
ACGCGAAC | -0.175
GAAATACA | -0.159
GTGGTCAA | -0.0298
CGAGATAC | 0.152
AGTCCACC | 0.286
AGTGGGCA | -0.178
CTCTGGGA | -0.125
AAGAAGAG | 0.0167
ACGGGTCC | -0.229
TTCTAGAA | -0.0199
ACAACTGG | -0.153

Sequence | PBM E-score
ACATCTCA | -0.0708
ATTACCAG | 0.0778
ATAAGACG | -0.0263
TATCCTGA | 0.0939
ACCGCGCG | -0.0654
CGTGACTC | 0.481
GATATCCA | 0.0321
ATCAAAAA | 0.141
CGTCACAC | -0.155
CAGCAGGG | -0.285
CCCTCCAC | -0.216
AACATTAG | -0.135
TACAAAAA | 0.0717
GCACAGGC | -0.273
CAGACGGC | 0.0127
AGCAGGCG | -0.0705
CGGGCCGC | -0.28
GACGTTGA | 0.0804
CATTTACC | 0.0252
CGTTTCAG | 0.0529
AGCATGAG | 0.156
CACAGTCA | 0.411
ACGTACCC | 0.0425
AATATGTG | 0.0684
CCTTATAA | -0.066

Sequence | PBM E-score
CGTCAAAG | 0.0679
CATTCATC | -0.0877
CGAAAACG | 0.0119
GTGTGGGA | -0.235
TCAGCGGA | 0.056
CGGATGGA | -0.0152
GCCTTATA | 0.00107
AATGATCT | 0.226
AGCATACC | -0.0889
CAGGCATC | 0.0801
CCAAAAGC | -0.178
AGGATTAT | 0.00303
ATCGAACC | -0.0791
ACAACTCG | -0.209
ACAGTACC | -0.105
AACCGCGC | -0.0822
GAAGTTCA | -0.024
AACCAGGT | -0.0103
ACTTTCGC | -0.0328
AGGGCCGC | -0.316
CGATGCGA | -0.162
GAAACAAA | 0.0449
CTAGCTAG | 0.0714
AGGTGGAG | -0.29
AGACGACC | -0.0204

Sequence | PBM E-score
AATTCTCA | 0.0655
AGCGACCT | -0.305
GCTAGTCC | 0.0288
AAAGAAAG | 0.00468
AATAGCAT | -0.165
AGCTCTGA | 0.0218
CCGGTTGA | -0.0809
ATTTCTCG | 0.105
ATCGTGGC | 0.0187
GGGGATTA | -0.00464
TGCAAAAA | 0.0376
AGGAGCGC | -0.205
GGCTGATA | -0.114
GTACGGAC | 0.103
GAATTACC | -0.0729
GGCTGCCC | -0.21
ACGAGCGG | -0.222
GCGCCAGC | -0.297
CAACCAGC | -0.0309
ATCCCGGA | 0.00118
ACAGGGGG | -0.12
AAATGGAT | 0.102
